{"source": "PubChem BioAssay AID743286", "about": "(National Center for Advancing Translational Sciences (NCATS), 2014)", "note": "Hit rate of the full screen: of about 1,100 compounds, about 340 (31%) were called active. This list was built around the results that the source calls inconclusive (neither active nor inactive); the mix of calls is not that of the screen. Calls follow the shape of the dose curve; as a rule, active = well fitted inhibition curve with a large enough effect; inconclusive = small, poorly fitted or top-dose-only effect; inactive = flat fitted curve, though single readings scatter. A potency beside an inconclusive call is a rough fit, not a confirmed value. % is scaled to controls: 0 for no effect and ±100 for the full control effect; potency is read from the fitted curve at half-maximal effect; tags tell the direction and shape of the fitted curve.", "data": [{"molecular_target": "Phosphatidylinositol 5-phosphate 4-kinase type-2 alpha (Homo sapiens) (UniProt P48426)", "sequence (P48426 whole entry, looked up, canonical isoform)": "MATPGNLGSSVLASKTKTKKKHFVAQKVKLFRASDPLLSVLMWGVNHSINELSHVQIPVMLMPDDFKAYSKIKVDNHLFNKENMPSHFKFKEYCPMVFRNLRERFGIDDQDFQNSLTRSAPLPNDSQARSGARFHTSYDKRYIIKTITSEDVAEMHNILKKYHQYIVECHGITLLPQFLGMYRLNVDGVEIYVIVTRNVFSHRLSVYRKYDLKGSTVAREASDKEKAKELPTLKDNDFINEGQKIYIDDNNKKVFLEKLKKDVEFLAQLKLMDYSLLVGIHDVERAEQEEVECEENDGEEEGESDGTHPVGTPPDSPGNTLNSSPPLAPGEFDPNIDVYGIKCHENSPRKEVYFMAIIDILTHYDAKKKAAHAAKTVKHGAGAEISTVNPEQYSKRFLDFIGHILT", "test": "qHTS for Inhibitors of PI5P4K: Confirmation in Primary Assay; also: nearly all actives have a fitted effect of over 65% in size", "settings": "PI5P4Kalpha enzyme, ADP-Glo luminescence, 60 min; series mostly up to 76.9 µM; activity change, negative = inhibition: at the top concentration", "source_text": "In addition to finding PI5P, we discovered the type II phosphatidylinositol 5-phosphate 4-kinase (PI5P4K) family (alpha, beta, gamma isoforms) that catalyze the conversion of PI5P to PI(4,5)P2. Alternatively, PI(4,5)P2 can also be synthesized through phosphatidylinositol-4-phosphate (PI4P) by the type I phosphatidylinositol 4-phosphate 5-kinases (PI4P5K). These PI5P4K enzymes therefore represent one way by which cells can regulate endogenous PI5P levels and play important roles in insulin signaling and in stress responses. […] A qHTS PI5P4K-alpha ADP-Glo assay was developed to identify specific modulators of human PI5P4K, phosphatidylinositol-5-phosphate 4-kinase (Type II PIPK). This assay was screened against the MLSMR containing ~400,000 small molecules (PubChem AID 652105). To confirm that the hits were not interacting with the detection enzyme system, a 1536-well counterscreen against the ADP-Glo kit (Promega) was utilized, as described in Davis et al., 2013 [1]. Davis et al., PLoS One. 2013;8(1):e54127. NIH Chemical Genomics Center [NCGC] NIH Molecular Libraries Probe Centers Network [MLPCN] MLPCN Grant: MH096575 Assay Submitter (PI): Atsuo Sasaki, Beth Israel Deaconess Medical Center\n2 microL of PI5P4Kalpha/substrate buffer (columns 1-2, 5-48) are dispensed into Greiner white solid bottom 1536-well assay plates; column 3 receives only PI5P4Kalpha buffer as 0x substrate controls; column 4 receives only substrate buffer as 0x PI5P4Kalpha controls. Final assay buffer consists of 0.038 M HEPES pH 7.4, 0.28 mM EGTA, 0.1% CHAPS, and 5% DMSO (final concentration). Compounds are then transferred via Kalypsys pin tool equipped with 1536-pin array (10 nL slotted pins, V&P Scientific, San Diego, CA). Following addition of compound, 1 microL of ATP (5 microM final concentration, all columns) is added to initiate the reaction. ATP is diluted in an assay buffer consisting of 0.02 M HEPES pH 7.4, 60 mM MgCl2, 15 microM ATP, and 0.1% CHAPS. The plates are then incubated at room temperature for 60 minutes. ADP-Glo reagent 1 is added (2 microL) and plates incubated for 45 minutes, before ADP-Glo reagent 2 (4 microL) is added and plates incubated for 30 minutes. They are then transferred to a ViewLux high-throughput CCD imager (PerkinElmer) wherein single end-point measurements of luminescence are acquired using a clear filter.", "values": [{"smiles": "COC(=O)C1=C(c2ccc(F)cc2F)C[C@@H]2CC[C@H]1N2C(=O)NC1Cc2ccccc2C1", "activity change, negative = inhibition": "inactive: -0.214%"}, {"smiles": "CCC(=O)Oc1ccc(C(=O)Nc2cccc(C(=O)c3ccccc3)c2)cc1", "Potency": "active: 8.91 µM"}, {"smiles": "Cc1c(OCC(F)(F)F)ccnc1CS(=O)c1nc2ccccc2[nH]1", "note": "(configuration not stated)", "Potency": "inconclusive: 22.4 µM [inhibitor, partial curve, poor fit]"}, {"smiles": "CC(C)NCC(O)c1ccc(C2CCCC2)cc1", "note": "(configuration not stated)", "activity change, negative = inhibition": "inactive: -0.799%"}, {"smiles": "CCCCCn1c(=O)c(C(=O)Nc2ccccc2S(N)(=O)=O)c(O)c2ccccc21", "Potency": "inconclusive: 28.2 µM [inhibitor, single point]"}, {"smiles": "CC(=O)Nc1cccc(-c2ccnc3c2CC(C(=O)NCc2ccco2)O3)c1", "note": "(configuration not stated)", "Potency": "inconclusive: 17.8 µM [inhibitor, partial curve]"}, {"smiles": "COc1ccc(C(=O)C2CCCN(Cc3ccon3)C2)c(OC)c1", "note": "(configuration not stated)", "activity change, negative = inhibition": "inactive: -2.13%"}]}]}
